# Data: article PMC12820563, “FoxP3 forms a head-to-head dimer in vivo and stabilizes its multimerization on adjacent microsatellites”
# Some of the results follow.
# Target: T1, MBP-FoxP1dN (Mus musculus, UniProt P58462 326-579)
# T1 sequence: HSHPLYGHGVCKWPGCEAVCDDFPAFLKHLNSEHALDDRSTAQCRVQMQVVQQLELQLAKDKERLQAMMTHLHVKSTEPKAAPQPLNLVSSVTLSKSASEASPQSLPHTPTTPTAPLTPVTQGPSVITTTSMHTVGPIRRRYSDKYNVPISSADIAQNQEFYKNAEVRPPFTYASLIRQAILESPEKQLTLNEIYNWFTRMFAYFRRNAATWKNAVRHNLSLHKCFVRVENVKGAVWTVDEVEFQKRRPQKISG
# Assay: PD-seq (MBP pull-down with sequencing); 20 mM Tris-HCl pH 7.5, 100 mM NaCl, 1.5 mM MgCl2, 0.4 uM protein, 0.1 uM dsDNA library, 30 min, room temperature, amylose pull-down; high values mean tight binding
# Conditions: protein: recombinant; tags: His6-MBP; chain copies: 2; dsDNA, one strand shown
# Outline: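 A degenerate double-stranded DNA library, filled in with Klenow, was added at 0.1 µM to 0.4 µM His6-MBP-tagged mouse FoxP3 or FoxP1 fragment lacking the N-terminus, expressed in E. coli. Incubation lasted 30 min at room temperature in Tris pH 7.5 buffer with NaCl and MgCl2, after which complexes were collected on amylose resin, washed three times, digested with proteinase K to free the DNA, barcoded by PCR and sequenced by Illumina. Binding is the pooled-replicate reads-per-million enrichment of pull-down over input.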
row,Sequence,binding signal
1,GATGATTGTTCTCCCAGCTGATGAATTAAAGGCATCGAGTAAACAAATTTTCCTAATCTTTCTGTTCAAGCGCCATCTAC,1.09 RPM ratio (pull-down/input)
2,GATGATTGTTCTCCCAGCTGATGAATTCGTACCTTCGAGTAAACAAATTTTCCTAATCTTTCTGTTCAAGCGCCATCTAC,0.872 RPM ratio (pull-down/input)
3,GATGATTGTTCTCCCAGCTGATGAATTGTATAGCTCGAGTAAACAAATTTTCCTAATCTTTCTGTTCAAGCGCCATCTAC,0.929 RPM ratio (pull-down/input)
4,GATGATTGTTCTCCCAGCTGATGAATTTCAGCTGTCGAGTAAACAAATTTTCCTAATCTTTCTGTTCAAGCGCCATCTAC,0.889 RPM ratio (pull-down/input)
5,GATGATTGTTCTCCCAGCTGATGAATTGCGGCGCTCGAGTAAACAAATTTTCCTAATCTTTCTGTTCAAGCGCCATCTAC,0.969 RPM ratio (pull-down/input)
6,GATGATTGTTCTCCCAGCTGATGAATTCATCCTCTCGAGTAAACAAATTTTCCTAATCTTTCTGTTCAAGCGCCATCTAC,0.839 RPM ratio (pull-down/input)
7,GATGATTGTTCTCCCAGCTGATGAATTATGTCGCTCGAGTAAACAAATTTTCCTAATCTTTCTGTTCAAGCGCCATCTAC,1.01 RPM ratio (pull-down/input)
8,GATGATTGTTCTCCCAGCTGATGAATTATGTGAGTCGAGTAAACAAATTTTCCTAATCTTTCTGTTCAAGCGCCATCTAC,1.13 RPM ratio (pull-down/input)
9,GATGATTGTTCTCCCAGCTGATGAATTGGTTAGGTCGAGTAAACAAATTTTCCTAATCTTTCTGTTCAAGCGCCATCTAC,0.882 RPM ratio (pull-down/input)
10,GATGATTGTTCTCCCAGCTGATGAATTAAGTGTGTCGAGTAAACAAATTTTCCTAATCTTTCTGTTCAAGCGCCATCTAC,1.14 RPM ratio (pull-down/input)
11,GATGATTGTTCTCCCAGCTGATGAATTATTACCTTCGAGTAAACAAATTTTCCTAATCTTTCTGTTCAAGCGCCATCTAC,1.17 RPM ratio (pull-down/input)
12,GATGATTGTTCTCCCAGCTGATGAATTCTAGCATTCGAGTAAACAAATTTTCCTAATCTTTCTGTTCAAGCGCCATCTAC,1.14 RPM ratio (pull-down/input)
13,GATGATTGTTCTCCCAGCTGATGAATTTAATGAATCGAGTAAACAAATTTTCCTAATCTTTCTGTTCAAGCGCCATCTAC,0.921 RPM ratio (pull-down/input)
14,GATGATTGTTCTCCCAGCTGATGAATTATTAAACTCGAGTAAACAAATTTTCCTAATCTTTCTGTTCAAGCGCCATCTAC,1.14 RPM ratio (pull-down/input)
15,GATGATTGTTCTCCCAGCTGATGAATTACGGACGTCGAGTAAACAAATTTTCCTAATCTTTCTGTTCAAGCGCCATCTAC,0.901 RPM ratio (pull-down/input)
16,GATGATTGTTCTCCCAGCTGATGAATTTAGTTTTTCGAGTAAACAAATTTTCCTAATCTTTCTGTTCAAGCGCCATCTAC,1.19 RPM ratio (pull-down/input)
17,GATGATTGTTCTCCCAGCTGATGAATTGCAGAATTCGAGTAAACAAATTTTCCTAATCTTTCTGTTCAAGCGCCATCTAC,1.22 RPM ratio (pull-down/input)
18,GATGATTGTTCTCCCAGCTGATGAATTTTAGTGTTCGAGTAAACAAATTTTCCTAATCTTTCTGTTCAAGCGCCATCTAC,1.14 RPM ratio (pull-down/input)
19,GATGATTGTTCTCCCAGCTGATGAATTTCAATCCTCGAGTAAACAAATTTTCCTAATCTTTCTGTTCAAGCGCCATCTAC,0.844 RPM ratio (pull-down/input)
20,GATGATTGTTCTCCCAGCTGATGAATTAGATCCGTCGAGTAAACAAATTTTCCTAATCTTTCTGTTCAAGCGCCATCTAC,0.844 RPM ratio (pull-down/input)

row,Sequence,binding signal
1,GATGATTGTTCTCCCAGCTGATGAATTAACACCTTCGAGTAAACAAATTTTCCTAATCTTTCTGTTCAAGCGCCATCTAC,1.02 RPM ratio (pull-down/input)
2,GATGATTGTTCTCCCAGCTGATGAATTGCTCATTTCGAGTAAACAAATTTTCCTAATCTTTCTGTTCAAGCGCCATCTAC,1.09 RPM ratio (pull-down/input)
3,GATGATTGTTCTCCCAGCTGATGAATTTGAGACTTCGAGTAAACAAATTTTCCTAATCTTTCTGTTCAAGCGCCATCTAC,0.842 RPM ratio (pull-down/input)
4,GATGATTGTTCTCCCAGCTGATGAATTAGTCCGTTCGAGTAAACAAATTTTCCTAATCTTTCTGTTCAAGCGCCATCTAC,0.931 RPM ratio (pull-down/input)
5,GATGATTGTTCTCCCAGCTGATGAATTTCCCTCTTCGAGTAAACAAATTTTCCTAATCTTTCTGTTCAAGCGCCATCTAC,0.822 RPM ratio (pull-down/input)
6,GATGATTGTTCTCCCAGCTGATGAATTTCCCAGATCGAGTAAACAAATTTTCCTAATCTTTCTGTTCAAGCGCCATCTAC,0.784 RPM ratio (pull-down/input)
7,GATGATTGTTCTCCCAGCTGATGAATTTTATAGATCGAGTAAACAAATTTTCCTAATCTTTCTGTTCAAGCGCCATCTAC,0.918 RPM ratio (pull-down/input)
8,GATGATTGTTCTCCCAGCTGATGAATTCTGCGGGTCGAGTAAACAAATTTTCCTAATCTTTCTGTTCAAGCGCCATCTAC,0.764 RPM ratio (pull-down/input)
9,GATGATTGTTCTCCCAGCTGATGAATTGGTGATCTCGAGTAAACAAATTTTCCTAATCTTTCTGTTCAAGCGCCATCTAC,0.939 RPM ratio (pull-down/input)
10,GATGATTGTTCTCCCAGCTGATGAATTGATAAACTCGAGTAAACAAATTTTCCTAATCTTTCTGTTCAAGCGCCATCTAC,1.28 RPM ratio (pull-down/input)
11,GATGATTGTTCTCCCAGCTGATGAATTGGGAGTGTCGAGTAAACAAATTTTCCTAATCTTTCTGTTCAAGCGCCATCTAC,0.908 RPM ratio (pull-down/input)
12,GATGATTGTTCTCCCAGCTGATGAATTATTTATCTCGAGTAAACAAATTTTCCTAATCTTTCTGTTCAAGCGCCATCTAC,1.76 RPM ratio (pull-down/input)
13,GATGATTGTTCTCCCAGCTGATGAATTTCGTCATTCGAGTAAACAAATTTTCCTAATCTTTCTGTTCAAGCGCCATCTAC,0.942 RPM ratio (pull-down/input)
14,GATGATTGTTCTCCCAGCTGATGAATTCAGCAAATCGAGTAAACAAATTTTCCTAATCTTTCTGTTCAAGCGCCATCTAC,1.11 RPM ratio (pull-down/input)
15,GATGATTGTTCTCCCAGCTGATGAATTCGGCCTATCGAGTAAACAAATTTTCCTAATCTTTCTGTTCAAGCGCCATCTAC,0.817 RPM ratio (pull-down/input)
16,GATGATTGTTCTCCCAGCTGATGAATTGCTGGGTTCGAGTAAACAAATTTTCCTAATCTTTCTGTTCAAGCGCCATCTAC,0.912 RPM ratio (pull-down/input)
17,GATGATTGTTCTCCCAGCTGATGAATTGCTCCTATCGAGTAAACAAATTTTCCTAATCTTTCTGTTCAAGCGCCATCTAC,1.03 RPM ratio (pull-down/input)
18,GATGATTGTTCTCCCAGCTGATGAATTCCGCCATTCGAGTAAACAAATTTTCCTAATCTTTCTGTTCAAGCGCCATCTAC,0.861 RPM ratio (pull-down/input)
19,GATGATTGTTCTCCCAGCTGATGAATTGAGAGTATCGAGTAAACAAATTTTCCTAATCTTTCTGTTCAAGCGCCATCTAC,0.878 RPM ratio (pull-down/input)
20,GATGATTGTTCTCCCAGCTGATGAATTCTCCAGATCGAGTAAACAAATTTTCCTAATCTTTCTGTTCAAGCGCCATCTAC,0.8 RPM ratio (pull-down/input)
